The campaign covered roughly 44,000 compounds. About 340 (0.77%) were called active. Inconclusive results (about 5%) are left out. Calls follow the shape of the dose curve; as a rule, active = well fitted inhibition curve with a large enough effect; inconclusive = small, poorly fitted or top-dose-only effect; inactive = flat fitted curve, though single readings scatter. Some of the results follow.
assay: Acumen qHTS Assay for Inhibitors of the mTORC1 Signaling Pathway in MEF (Tsc2-/-, p53-/-) Cells: Sytravon; details: phospho-rpS6 immunofluorescence/PI, 24 h; series mostly up to 38.3 µM; activity change, negative = inhibition: at the top concentration;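 also: plate controls were DMSO for no effect and rapamycin for full effect; nearly all actives have a fitted effect of over 50% in size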
How it was run: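 Read-out: phospho-S6 Alexa-488 intensity over PI intensity per well, scored as % active cells using thresholds from rapamycin (7.5 nM) and DMSO controls. Tsc2-/-, p53-/- MEFs exposed to compound for 24 h; PI cell count recorded as viability.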

Activity change, negative = inhibition, inactive:
Cn1c(C(=O)NCc2cccc(F)c2)cc2cc(S(=O)(=O)N3CCCCC3)ccc21 7.3%
COc1ccccc1CCNC(=O)c1cccn1-c1nnc(N2CCCCC2)s1 -8.79%
O=C(Cn1cc(S(=O)(=O)Cc2ccc(F)cc2)c2ccccc21)NCc1ccccc1 4.33%
CCOc1ccccc1NC(=O)CSc1cc(=O)n(CC)c2ccccc12 -7.97%
CCOc1ccc(-c2cc(C(F)(F)F)c(C#N)c(SCC(=O)Nc3ccccc3)n2)cc1 -0.86%
CC(=O)c1cc(-c2ccccc2)n(CCC(=O)Nc2cc(C)cc(C)c2)c1C 0.306%
Cc1cccc(NC(=O)CSc2nc(C)c(Cc3ccccc3)c(=O)[nH]2)c1 6.96%
CCCNC(=O)CN1C(=O)c2cccnc2Sc2ccccc21 -1.43%
COc1ccccc1N1CCN(C(=O)c2c3c(nc4ccccc24)C(=O)N(C2CCCCC2)C3)CC1 -12.4%
Cc1ccc(C)c(N2CCN(C(=O)c3c4c(nc5ccccc35)C(=O)N(C3CCCCC3)C4)CC2)c1 -0.453%
COc1ccc(-c2nc(CNS(=O)(=O)c3ccc(F)cc3)cs2)cc1 -5.72%
O=C(CSc1nc2c(c(=O)[nH]1)CN(Cc1ccc3c(c1)OCO3)CC2)Nc1ccc(F)cc1 5.9%
CCC(C)NC(=O)c1sc2nc(C)c(C(=O)Nc3ccc(Cl)cc3)c(-c3ccc(Br)cc3)c2c1N (stereo not given) 0%
CCCOc1cccc(C(=O)Nc2ccc(-c3nc4ccccc4o3)cc2)c1 3.83%
COc1cc(OC)cc(-n2c(=O)c3ccccc3n(CC(=O)NCCc3ccc(OC)c(OC)c3)c2=O)c1 -11.8%
COc1ccc2cc(CNc3ccc(OC)c(OC)c3)c(=O)n(CC(=O)Nc3ccc(C)cc3)c2c1 -9.39%
O=C(NCCc1ccccc1)c1c[nH]c2ccc(S(=O)(=O)Nc3ccccc3F)cc2c1=O -8.52%
COc1ccc(NC(=O)Nc2nnc(N(C)C3CCCCC3)s2)c(OC)c1 -2.84%
CCOC(=O)c1sc(NC(=O)COc2ccccc2Cl)c(C(=O)OCC)c1C 4.41%
O=C(Nc1ccc(O)c(-c2nc3ccccc3o2)c1)c1ccco1 -1.31%
Cc1ccccc1NC(=O)CSc1nc2c(oc3ccccc32)c(=O)n1-c1ccccc1F -7.8%
CC1CCN(C(=O)c2cc(-c3ccc(Cl)cc3)on2)CC1 -3.51%
CC1=C(C(=O)OCC2CCCCC2)C(c2c(F)cccc2Cl)CC(=O)N1 (stereo not given) -18.9%
COc1ccc(CCNC(=O)CCc2c(C)nc3nc(C)nn3c2C)cc1OC 1.69%
CCc1ccc(S(=O)(=O)c2nnn3c2nc(NC2CCCC2)c2sccc23)cc1 -4.16%
COc1ccc(C)cc1NC(=O)CCS(=O)(=O)c1ccc2c(c1)CC(=O)N2C 11.1%
COc1cc(OC)c(NC(=O)Nc2ccccc2OCc2cc(=O)n3cc(C)ccc3n2)cc1Cl 8.52%
COCCNC(=O)c1cc(Sc2ccc(F)cc2F)nc2ccccc12 1.36%
O=C(CSc1ccc2ccccc2n1)Nc1nsc(-c2ccc(Cl)cc2)n1 -2.38%
COc1ccc(-n2ccn(Cc3ccc(C)cc3)c(=O)c2=O)cc1OC -0.818%
O=C(c1ccc2c(c1)N(Cc1ccc(F)cc1)C(=O)c1ccccc1S2(=O)=O)N1CCC(Cc2ccccc2)CC1 -10.8%
COc1ccc(NC(=O)CN(C)S(=O)(=O)c2ccc3[nH]c4c(c3c2)CCCC4)cc1Cl -4.55%
CC(=O)N1c2nc(-c3ccco3)nn2C2(CCCCC2)[C@@H]2CCCC[C@@H]21 -12.4%
Cc1cccc(-n2c(=O)c3c(c4cc(C)ccc4n3C)n(Cc3ccccc3F)c2=O)c1 1.64%
COc1ccc(Cn2c(SCc3ccc(C(=O)NCc4ccccc4F)cc3)nc3cccnc32)cc1 -3.32%
Cc1ccc(Cl)cc1N1C(=O)N(Cc2ccc(C#N)cc2)c2ccccc2S1(=O)=O -3.93%
COc1ccc(C2=Nc3ccc(C)cc3NC(c3ccc(Cl)cc3)=N2)cc1 -0.393%
COc1ccc(Cl)cc1NC(=O)CCCn1c(C)c2cnn(-c3ccccc3)c(=O)c2c1C -0.352%
COc1ccc(CNC(=O)c2cccc(NC(=O)N3CCSc4ncccc43)c2)cc1 -0.299%
COc1cccc(Cn2c(=O)n(-c3ccc(Br)cc3F)c(=O)c3sc4ccccc4c32)c1 -0.36%
Cc1ccc(NC(=O)CC2Nc3cccc4cccc(c34)NC2=O)cc1 (stereo not given) -28%
CCCCNC(=O)CSc1nc2ccccc2nc1Cc1ccc(Cl)cc1 0%
COc1ccc(NC(=O)CCNS(=O)(=O)c2cccc3nsnc23)cc1OC -19.2%
COc1ccc(N(Cc2ccccc2)C(=O)c2nc(SC)ncc2Cl)cc1 -15.1%
CCCOc1cccc(C(=O)N(Cc2cc(OC)c(OC)c(OC)c2)C2CCS(=O)(=O)C2)c1 (stereo not given) -13.2%
Cc1ccc(OCCn2nnc3sc4c(c3c2=O)CCC(C(C)(C)C)C4)cc1 (stereo not given) -0.83%
CCn1c(CN2CCC(C)CC2)nc2cc(NC(=O)COc3ccc([N+](=O)[O-])cc3)ccc21 -1.04%
CC(C)c1ccc(NC(=O)c2cccn2-c2nnc(N3CCCCC3)s2)cc1 -10.6%
CCOC(=O)c1cccc(NC(=O)CCCn2c(C)c3cnn(-c4ccccc4)c(=O)c3c2C)c1 -1.28%
COc1cc(C2CC(=O)Nc3c2c(=O)n(C)c(=O)n3C)cc(OC)c1OC (stereo not given) 0.735%
Cc1cccc(-n2ncc(C(=O)N3CCC(C)CC3)c2C2CCN(C(=O)OC(C)(C)C)CC2)c1 -0.0544%
Cc1ccc(CNC(=O)CCC(=O)N2CC(C)Sc3ccccc32)cc1 (stereo not given) -12.4%
CCCCn1c(CNC(=O)c2ccc(OC)cc2)nnc1SCC(=O)Nc1ccccc1 -14.8%
COc1ccc(-c2cc(C(C)=O)c(C)n2CCC(=O)NCc2ccc(F)cc2)cc1 -0.575%
Cc1ccc(NC(=O)c2cc3c(=O)[nH]c4ccccc4c3n2C)cc1F -0.462%
CCN(CC)c1cc2c(cc1F)c(=O)c(S(=O)(=O)c1ccccc1)cn2Cc1ccccc1 -9.89%
COc1ccc(CCNC(=O)NCc2noc3ccc(C)cc23)c(OC)c1 3.94%
CCOC(=O)c1c(S(=O)(=O)NCC(=O)N2CCN(c3ccccc3OC)CC2)c(C)n(C)c1C -2.6%
CC(=O)c1cccc(NS(=O)(=O)c2c(C)nc3sc(C)cn3c2=O)c1 -16.1%
CCOC(=O)c1sc2ncn(CC(=O)Nc3ccc(C)cc3C)c(=O)c2c1C 1.01%
Cc1cc(C)c(/C=C/c2onc(C)c2S(=O)(=O)N2CCC(C(=O)N3CCN(c4ccccc4)CC3)CC2)c(C)c1 -0.262%
COC(=O)c1ccc(Cn2c(SCc3cccc(C)c3)nc3ccncc32)cc1 -5.9%
Cc1ccc(-c2ccc(=O)n(C(C)C(=O)Nc3ccccc3Cl)n2)cc1C (stereo not given) 0.928%
COc1cccc(NC(=O)c2cn(C3CCCCC3)c(=O)c3c2c2ccccc2n3C)c1 -19.3%
CCCCNC(=O)C(CC)Sc1nnc(-c2ccc(OC)c(OC)c2)c(-c2ccc(OC)c(OC)c2)n1 (stereo not given) -0.324%
COc1ccccc1-c1nn(CCC(=O)Nc2cccc(C(C)=O)c2)c2nc(C)cc(C)c12 -2.19%
COc1ccc(S(=O)(=O)N(CC(=O)N2CCC(C)CC2)c2ccc(C)cc2)cc1 4%
O=S(=O)(Nc1ccc(-c2ccc(N3CCCC3)nn2)cc1)c1ccc(Br)cc1 -1.83%
COc1ccc(C(=O)NCC(c2cccs2)S(=O)(=O)c2ccc(C)cc2)cc1 (stereo not given) 0.588%
CCc1ccccc1Nc1nn2c(=O)c3ccc(C(=O)Nc4cc(C)cc(C)c4)cc3nc2s1 -9.91%
Cc1cc(N2CCC(C)CC2)nc2ccc(NC(=O)CCC(=O)N3CCN(c4cccc(C(F)(F)F)c4)CC3)cc12 -6.23%
COc1cc(Cl)c(C)cc1NC(=O)CN1c2ccccc2S(=O)(=O)c2ccccc21 -0.321%
Cc1nn(C)c2c1c(C(F)(F)F)cc(=O)n2CC(=O)NCc1ccccc1Cl 0.31%
Cc1cc(F)ccc1NC(=O)c1sc2nc(-c3cccs3)ccc2c1N -2.22%
Cc1ccc(CC(=O)Nc2c(C(=O)N3CCN(c4ccccc4F)CC3)oc3ccccc23)cc1 0.896%
CCc1cccc(CC)c1NC1=NS(=O)(=O)c2ccccc21 -0.827%
CCOc1ccccc1NC(=O)C(C)Sc1nc2c(c(=O)[nH]1)CCCC2 (stereo not given) 0.531%
Cc1ccc(NS(=O)(=O)c2ccc3c(c2)NC(=O)CCS3)c(Br)c1 -15.3%
Cc1ccc(NCc2nnc3n2CCCCC3)cc1Cl 0%
CCOCCCNC(=O)CCc1nnc2ccc(N3CCN(c4cccc(OC)c4)CC3)nn12 0.737%
CCOC(=O)c1ccccc1NC(=O)CCc1c(C)nc2ncnn2c1C -5.55%
COc1ccc(-c2cc(C(=O)Nc3c(C)nn(Cc4ccc(F)cc4)c3C)no2)cc1OC 8.3%
Cc1ccc2c(=O)cc(C(=O)Nc3nnc(C)s3)oc2c1 5.29%
CN1C(C(=O)Nc2ccc(F)cc2F)=CC(c2cccs2)=NS1(=O)=O 0%
CCn1nc(-c2ccccc2)c(-c2ccccc2)c(C(=O)OCCOC)c1=O 5.56%
Cc1oc(-c2ccccc2)nc1CNC(=O)Nc1ccccc1 4.12%
CCOC(=O)C1=C(CN2CCC(C(=O)OCC)CC2)NC(=O)NC1c1ccc(Cl)cc1 (stereo not given) 1.09%
CCOc1ccc(S(=O)(=O)N2CCN(c3ccccc3)CC2)cc1C(N)=O -0.597%
Cc1ccc(Nc2c(-c3ccccc3O)nc3ccc(Br)cn23)cc1 -14.9%
CC(C)N(C(=O)Cn1cc(S(=O)(=O)Cc2ccc(C(F)(F)F)cc2)c2ccccc21)C(C)C -14.6%
Cc1cccc(NC(=O)CSc2nc3c([nH]c4ccccc43)c(=O)n2C)c1 -0.662%
COc1ccc2c(Sc3ccc(Cl)cc3)c(C(=O)NCCCN3CCCCC3)[nH]c2c1 -0.321%
CCOc1ccc(-n2c(=O)c3c(C)c(C(=O)N(C)C)sc3n(CC(=O)Nc3c(C)cc(C)cc3C)c2=O)cc1 -4.61%
Cc1ccc(CN(C(=O)COc2ccc(C)c(C)c2)C2CCS(=O)(=O)C2)o1 (stereo not given) 5.52%
COc1ccc(S(=O)(=O)Nc2cc(-c3cn4ccccc4n3)ccc2C)cc1 -12.3%
